Experimental data taken from the supplement of paper PMC4604168 (melanoma cell lines).
Some of the results follow. Repeats are few or missing, and single values can be far off.

The molecules below were run on MeWo (assay: cell count relative to DMSO control; melanoma cells; higher = more viable cells). Conditions: library dose: standard library concentration; 72 h.
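Note: cells treated in 1,536-well plates, then fixed and DAPI-stained, with nuclei counted from automated high-throughput microscope images.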

SMILES | cell count
O=c1[nH]nc(Sc2ncc([N+](=O)[O-])s2)n1-c1ccc2c(c1)OCCO2 + Cn1nnc2c(C(N)=O)ncn2c1=O [temozolomide] (first compound 1 µM, partner dose 10 µM) | 81.6%
Cn1cncc1[C@@](N)(c1ccc(Cl)cc1)c1ccc2c(c1)c(-c1cccc(Cl)c1)cc(=O)n2C [tipifarnib] + O=C(O)C(=O)Nc1sc2c(c1C(=O)O)CCNC2 [TCS401] (first compound 0.05 µM, partner dose 8.33333 µM) | 86.2%
O=C(Nc1cccc(Cl)c1)Nc1ncc(CCNc2ncnc3ccsc23)s1 + CCc1ccc(CCOc2ccc(CC3SC(=O)NC3=O)cc2)nc1 [pioglitazone] (first compound 0.004 µM, partner dose 10 µM) | 76.3%
O=c1[nH]nc(Sc2ncc([N+](=O)[O-])s2)n1-c1ccc2c(c1)OCCO2 + O=C(O)c1ccc(-c2c[nH]c3ncc(-c4ccccc4)cc23)cc1C1CCCC1 [GSK650394] (first compound 1 µM, partner dose 0.8 µM) | 83.6%
O=c1[nH]nc(Sc2ncc([N+](=O)[O-])s2)n1-c1ccc2c(c1)OCCO2 + O=C(Nc1cccc(Cl)c1)Nc1ncc(CCNc2ncnc3ccsc23)s1 [SNS314] (first compound 1 µM, partner dose 0.004 µM) | 72.9%
COc1cc(Nc2ncc(F)c(Nc3ccc4c(n3)NC(=O)C(C)(C)O4)n2)cc(OC)c1OC [Tamatinib] + CCCCCCCCCCCC1=C(O)C(=O)C=C(O)C1=O [Embelin] (first compound 2 µM, partner dose 6 µM) | 93.4%
CC1(C)NC(=O)N(c2ccc([N+](=O)[O-])c(C(F)(F)F)c2)C1=O [nilutamide] + O=C1NC(=O)/C(=C/c2ccc(-c3ccc(F)cc3O)o2)S1 [AS252424] (first compound 5 µM, partner dose 5 µM) | 85.3%
Cn1cncc1[C@@](N)(c1ccc(Cl)cc1)c1ccc2c(c1)c(-c1cccc(Cl)c1)cc(=O)n2C [tipifarnib] + O=C(Nc1ccccc1)c1cc([N+](=O)[O-])ccc1Cl [GW9662] (first compound 0.05 µM, partner dose 10 µM) | 72.7%
O=c1[nH]nc(Sc2ncc([N+](=O)[O-])s2)n1-c1ccc2c(c1)OCCO2 + C[C@@H](N)c1ccc(C(=O)Nc2ccnc3[nH]ccc23)cc1 [RKI983] (first compound 1 µM, partner dose 2 µM) | 75.6%
O=C(O)c1ccc(-c2c[nH]c3ncc(-c4ccccc4)cc23)cc1C1CCCC1 + COc1cc(N2CCC(N3CCN(C)CC3)CC2)ccc1Nc1ncc(Cl)c(Nc2ccccc2S(=O)(=O)C(C)C)n1 [NVP-TAE684] (first compound 0.8 µM, partner dose 0.4 µM) | 62.2%
O=c1[nH]nc(Sc2ncc([N+](=O)[O-])s2)n1-c1ccc2c(c1)OCCO2 + COc1cc(Nc2ncc(F)c(Nc3ccc4c(n3)NC(=O)C(C)(C)O4)n2)cc(OC)c1OC [Tamatinib] (first compound 1 µM, partner dose 2 µM) | 81.9%
O=c1[nH]nc(Sc2ncc([N+](=O)[O-])s2)n1-c1ccc2c(c1)OCCO2 + COc1cc(N2CCC(N3CCN(C)CC3)CC2)ccc1Nc1ncc(Cl)c(Nc2ccccc2S(=O)(=O)C(C)C)n1 [NVP-TAE684] (first compound 1 µM, partner dose 0.4 µM) | 82%
COc1cc(Nc2ncc(F)c(Nc3ccc4c(n3)NC(=O)C(C)(C)O4)n2)cc(OC)c1OC [Tamatinib] + CC1(C)NC(=O)N(c2ccc([N+](=O)[O-])c(C(F)(F)F)c2)C1=O [nilutamide] (first compound 2 µM, partner dose 5 µM) | 74.2%
O=C(O)c1ccc(-c2c[nH]c3ncc(-c4ccccc4)cc23)cc1C1CCCC1 + COc1ccc2c(c1)CCC1C2CCC2(C)C(NCCCCCCN3C(=O)C=CC3=O)CCC12 [U73122] (first compound 0.8 µM, partner dose 2 µM) | 74.3%
O=c1[nH]nc(Sc2ncc([N+](=O)[O-])s2)n1-c1ccc2c(c1)OCCO2 + CO[C@@H]1[C@H](N(C)C(=O)c2ccccc2)C[C@H]2O[C@]1(C)n1c3ccccc3c3c4c(c5c6ccccc6n2c5c31)C(=O)NC4 [Midostaurin] (first compound 1 µM, partner dose 0.4 µM) | 75.6%
Cn1cncc1[C@@](N)(c1ccc(Cl)cc1)c1ccc2c(c1)c(-c1cccc(Cl)c1)cc(=O)n2C [tipifarnib] + NCC(=O)Nc1ccc(-n2nc(C(F)(F)F)cc2-c2ccc3c(ccc4ccccc43)c2)cc1 [OSU03012] (first compound 0.05 µM, partner dose 5 µM) | 99%

SMILES | cell count
C[C@@H]1CCN(C(=O)CC#N)C[C@@H]1N(C)c1ncnc2[nH]ccc12 + Cc1cc([N+](=O)[O-])ccc1NS(=O)(=O)c1cc(Cl)ccc1Cl [FH535] (first compound 5 µM, partner dose 5 µM) | 99.2%
CC1(C)NC(=O)N(c2ccc([N+](=O)[O-])c(C(F)(F)F)c2)C1=O [nilutamide] + N#Cc1c(O)c2c(-c3ccc(-c4ccccc4O)cc3)csc2[nH]c1=O [A769662] (first compound 5 µM, partner dose 10 µM) | 99.5%
O=c1[nH]nc(Sc2ncc([N+](=O)[O-])s2)n1-c1ccc2c(c1)OCCO2 + Cc1ccc(Nc2nccc(N(C)c3ccc4c(C)n(C)nc4c3)n2)cc1S(N)(=O)=O [Pazopanib] (first compound 1 µM, partner dose 2 µM) | 114%
O=C(Nc1cccc(Cl)c1)Nc1ncc(CCNc2ncnc3ccsc23)s1 + Oc1cc(-c2nc(-c3ccccc3)[nH]c2-c2ccncc2)ccc1Cl [L779450] (first compound 0.004 µM, partner dose 1 µM) | 70.9%
COc1cc(Nc2ncc(F)c(Nc3ccc4c(n3)NC(=O)C(C)(C)O4)n2)cc(OC)c1OC [Tamatinib] + CCN(CC)CCCCNc1ncc2cc(-c3cc(OC)cc(OC)c3)c(NC(=O)NC(C)(C)C)nc2n1 [PD173074] (first compound 2 µM, partner dose 0.5 µM) | 59.5%
O=c1[nH]nc(Sc2ncc([N+](=O)[O-])s2)n1-c1ccc2c(c1)OCCO2 + Nc1ncn([C@H]2C[C@H](O)[C@@H](CO)O2)c(=O)n1 [decitabine] (first compound 1 µM, partner dose 0.5 µM) | 55.3%
O=c1[nH]nc(Sc2ncc([N+](=O)[O-])s2)n1-c1ccc2c(c1)OCCO2 + C[C@]1(O)C[C@@H](c2nc(-c3ccc4ccc(-c5ccccc5)nc4c3)c3c(N)nccn32)C1 [OSI906] (first compound 1 µM, partner dose 2 µM) | 85.6%
O=c1[nH]nc(Sc2ncc([N+](=O)[O-])s2)n1-c1ccc2c(c1)OCCO2 + CCCCCCCCc1ccc(CCC(N)(CO)CO)cc1 [fingolimod] (first compound 1 µM, partner dose 10 µM) | 12.6%
O=c1[nH]nc(Sc2ncc([N+](=O)[O-])s2)n1-c1ccc2c(c1)OCCO2 + COc1ccc(-c2ccc3c(N4CCOCC4)nc(N4C[C@@H](C)O[C@@H](C)C4)nc3n2)cc1CO [KU0063794] (first compound 1 µM, partner dose 0.1 µM) | 90.4%
COc1cc(Nc2ncc(F)c(Nc3ccc4c(n3)NC(=O)C(C)(C)O4)n2)cc(OC)c1OC [Tamatinib] + c1cc(-c2cnn3cc(-c4ccc(OCCN5CCCCC5)cc4)cnc23)ccn1 [Dorsomorphin] (first compound 2 µM, partner dose 2 µM) | 68.6%
O=C(Nc1cccc(Cl)c1)Nc1ncc(CCNc2ncnc3ccsc23)s1 + O=C1NC(=O)/C(=C/c2ccc(-c3ccc(F)cc3O)o2)S1 [AS252424] (first compound 0.004 µM, partner dose 5 µM) | 66.7%
CC1(C)NC(=O)N(c2ccc([N+](=O)[O-])c(C(F)(F)F)c2)C1=O [nilutamide] + Oc1cc(-c2nc(-c3ccccc3)[nH]c2-c2ccncc2)ccc1Cl [L779450] (first compound 5 µM, partner dose 1 µM) | 93.6%
O=C(O)c1ccc(-c2c[nH]c3ncc(-c4ccccc4)cc23)cc1C1CCCC1 + O=C1NC(=O)/C(=C/c2ccc(-c3ccc(F)cc3O)o2)S1 [AS252424] (first compound 0.8 µM, partner dose 5 µM) | 78.6%
O=C(Nc1cccc(Cl)c1)Nc1ncc(CCNc2ncnc3ccsc23)s1 + CN(C)S(=O)(=O)c1ccc2c(c1)/C(=C/c1cc3c([nH]1)CCCC3)C(=O)N2 [SU6656] (first compound 0.004 µM, partner dose 2 µM) | 52.3%
O=c1[nH]nc(Sc2ncc([N+](=O)[O-])s2)n1-c1ccc2c(c1)OCCO2 + O=C(/C=C/c1cccnc1)NCCCCC1CCN(C(=O)c2ccccc2)CC1 [FK866] (first compound 1 µM, partner dose 0.05 µM) | 92.7%
O=C(O)c1ccc(-c2c[nH]c3ncc(-c4ccccc4)cc23)cc1C1CCCC1 + CC(C)CCN1c2nc(Nc3cc(F)c(O)c(F)c3)ncc2N(C)C(=O)C1C [BID1870] (first compound 0.8 µM, partner dose 1 µM) | 79.8%
